These results are taken from paper PMC5836133.

The list shows a part of the results. At the low end of the ranking the order means little.

The assay has as its system T1, GST-NbGlk1(82-244).
T1 sequence: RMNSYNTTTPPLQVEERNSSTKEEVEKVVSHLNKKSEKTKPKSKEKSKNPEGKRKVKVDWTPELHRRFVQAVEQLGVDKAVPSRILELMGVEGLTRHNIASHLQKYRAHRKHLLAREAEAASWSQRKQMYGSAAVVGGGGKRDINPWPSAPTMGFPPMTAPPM
The assay is described as follows: protein-binding microarray.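 Note: rank-based score ranging −0.5 to +0.5 with E above 0.45 taken as significant binding.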 Particulars: NbGlk1 is a Golden2-like transcription factor of Nicotiana benthamiana; high values mean tight binding; most listed sequences are background and not binding sites; double strand, one strand shown.
Take ATCTAAAT: the binding signal is 0.335 E-score.
The same measure for ACACACCG: -0.053 E-score.
ACAACCCG returned a binding signal of -0.172 E-score.
The figure for AAGTAAAG is -0.0314 E-score; for ATGTTTCC it is 0.00555 E-score.
For AAGGCCGA, the binding signal is -0.161 E-score.
The figure for ATTTTCAC is 0.34 E-score.
The same measure for ACTATGGC: -0.224 E-score; for CACCTGCC: -0.262 E-score.
CAACTCTC displayed a binding signal of -0.084 E-score.
In turn, AGTCATTC came in with a binding signal of -0.063 E-score.
ACTTCGCA: the binding signal is -0.0412 E-score.
AATTTTGT: the binding signal was found to be 0.23 E-score.
The same measure for ACCTCTCT: -0.205 E-score; for AACTACGT: -0.0467 E-score; for CAGAGATG: 0.0342 E-score.
The figure for ATTCAAGG is -0.0986 E-score; for AGTTATGA it is 0.0524 E-score.
The same measure for ACGCTTAT: 0.0509 E-score; for AACTGCAT: -0.118 E-score; for ACCATTAT: 0.149 E-score.
For ACGACGCA, the binding signal is -0.184 E-score.
Regarding ACGCAATG, the binding signal turned out to be 0.0342 E-score.
In turn, ATTGCCCG gave a binding signal of 0.123 E-score.
With AAGTCAAT, the binding signal was -0.112 E-score.
ATAGCATA: the binding signal is 0.0342 E-score.
The same measure for CAGACTAG: -0.0574 E-score.
The figure for AGTAGGTC is -0.265 E-score; for ATGAGTCG it is -0.0316 E-score; for ACTTTCTG it is 0.0519 E-score.
In the case of ATAGGTCA, the binding signal is -0.108 E-score.
The same measure for AAACTTCA: -0.0414 E-score; for AGGTCTAT: -0.104 E-score.
The figure for ACCTCGTA is -0.0277 E-score.
The same measure for CACGCCTG: -0.229 E-score; for AATCTCAT: 0.42 E-score; for AAAACTTT: 0.0231 E-score.
On to AGAATTTC, for which the binding signal is 0.267 E-score.
The figure for ATCGGCTC is -0.0233 E-score; for AGATCCAA it is 0.262 E-score.
The figure for AAGGTCGC is -0.178 E-score; for AGTAAATG it is 0.0793 E-score; for AAGATACG it is 0.319 E-score.
The same measure for AACTCGGT: -0.112 E-score; for AAGGTGAG: -0.138 E-score; for AATTCCGA: 0.0521 E-score.
AACTTATT: the binding signal was determined as 0.0455 E-score.
The figure for ATACAAAT is 0.281 E-score; for ATTGAACA it is -0.0807 E-score; for CAACAGTC it is -0.16 E-score.
The figure for AAGTTCCC is -0.16 E-score.
The figure for ATCTAGCG is 0.18 E-score; for AACCATAA it is 0.115 E-score.
On to ATGTGGGA, for which the binding signal worked out at 0.00897 E-score.
AGTACGAA gave a binding signal of 0.187 E-score.
The same measure for AGCGTAGA: 0.0679 E-score.
CACCAGGA: the binding signal was 0.0833 E-score.
The figure for AACCAGAC is -0.149 E-score; for ACCTGGCG it is -0.239 E-score.
The figure for CAAATCCC is 0.315 E-score; for ACCAAGAT it is 0.289 E-score.
AATAAAGG registered a binding signal of 0.103 E-score.
The figure for AAGATAAA is 0.0898 E-score.
The same measure for AGGCTCCA: -0.113 E-score; for AAAATTAT: 0.116 E-score; for AGCCACGA: -0.0211 E-score.
Turning to AATGTGCG, the binding signal was 0.00168 E-score.
For AAGTACAA, the binding signal amounted to 0.0312 E-score.
The sequence AAACCATA gave a binding signal of 0.0967 E-score.
The figure for CAGACTGG is -0.157 E-score; for ACTACTAC it is 0.0106 E-score; for AATGCGAT it is 0.246 E-score.
The figure for AAAGTTCG is 0.0661 E-score; for ATTCTAGA it is 0.2 E-score; for ATGTAGGA it is 0.112 E-score.
The figure for AACGCCTT is -0.19 E-score.
AGGGACAC registered a binding signal of -0.262 E-score.
Consider AGATACAA, for which the binding signal amounted to 0.0386 E-score.
The same measure for AGGAATTG: 0.0512 E-score; for AATTCCAA: 0.141 E-score.
The figure for AGCTCTCC is -0.312 E-score; for AGGGCCCA it is -0.199 E-score.
The same measure for ACCATTCT: 0.017 E-score; for AAAGGAGG: -0.208 E-score.
For the sequence AAGAAATA, the binding signal amounted to 0.222 E-score.
The same measure for ATGAGGGG: -0.173 E-score.
The figure for AGCGCAGG is -0.181 E-score; for ACTTATAG it is 0.0307 E-score; for ACTGATGA it is -0.0176 E-score.
As to AGGATCTG, the binding signal was found to be 0.337 E-score.
The figure for ATCCGCCG is 0.216 E-score.
The same measure for AACAAAAT: 0.353 E-score; for AGTTGTTC: -0.0747 E-score.
The same measure for ACAGGGGT: -0.0899 E-score.
Take AGTGAAAA: the binding signal was 0.128 E-score.
The figure for CACGCGCA is 0.0023 E-score; for ATAGCCTG it is -0.145 E-score; for ACCTTACG it is -0.182 E-score.
The same measure for AGTGGCAA: -0.0754 E-score; for ACGATAAA: 0.0605 E-score; for CACAAGCC: -0.278 E-score.
AAACCGTG: the binding signal was -0.0471 E-score.
The same measure for AATTTTAT: 0.18 E-score; for AGAATATC: 0.435 E-score.
The same measure for AATGCACA: 0.0611 E-score; for ATGACCCG: -0.154 E-score.
ACTCTGTC showed a binding signal of -0.143 E-score.
Take AAGACTAG: the binding signal was -0.0102 E-score.
On to AATACAGT, for which the binding signal is -0.00366 E-score.
The figure for ATTTACTA is 0.185 E-score.
